± gives the standard deviation of the averaged measurements. This is one part of the list.
System: PfAP2-G AP2 domain (GST-tagged)
Assay: gcPBM binding intensity (ln(normalized median fluorescence intensity)); higher = stronger DNA binding
Method in brief: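 Binding of GST-tagged P. falciparum DNA-binding domains, expressed in E. coli and used at about 25 μg on average, was carried out for 1 h in 1× PBS containing 1% milk, 0.2 mg/ml BSA, 0.5% salmon testes DNA and 0.03% Triton X-100. The target was an Agilent 4 × 180k array of primer-extended double-stranded 36-bp intergenic genomic probes plus negative controls, read with Alexa488 anti-GST antibody at 488 nm. Binding intensity is the highest Masliner-normalised natural-log median intensity across replicate spots of either probe orientation.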

Row | Sequence | gcPBM binding intensity (ln)
1 | TTAAATGTTATATATTGTACATATAATATATGTATT [XGTACX_site1492] | 10.8 ± 0.5
2 | TCCTTGTTTGGTTTTTTTTTTTCTTCTTTTTTTTTT [CACACA_negctrl_site1355] | 10.1
3 | TTATGTTATATATACACACACAAAAGAAAAAAAAAA [CACACA_site2987] | 10.2 ± 0.31
4 | AGGTTAAAAATAAATACACACATTTGATGTCTGTAT [CACACA_site6596] | 10 ± 0.11
5 | ATATAACATATTAATAATATATTTATAATATGTTTA [GTGCAC_negctrl_site168] | 9.45 ± 0.15
6 | TTTTCTATTTAATTGGTGCACTGATATATACACATA [GTGCAC_site9533] | 10.4 ± 0.4
7 | TTTTGAGAATATATGGGTACAAATAAATAAAAATAT [XGTACX_site1933] | 11.2 ± 0.7
8 | AAATTTAAATAATGTGCGCATCTTAATATATATAAG [GTGCAC_site9890] | 10.2 ± 0.13
9 | AAATAATATTGAAAAGTGCATATTTTTGTTGATATA | 10.04 ± 0.071
10 | CATATAAATAGACACACACACACATATAAATAAATA [CACACA_site7156] | 10.2 ± 0.16
11 | TCTTATAACAAAAAAAAATAAAAAATAAAACTATAT [GTGCAC_negctrl_site11] | 9.55 ± 0.29
12 | TCATTCAAAAAAAATCAACACACAGTTACATAGCTC [CACACA_site8700] | 9.79 ± 0.11
13 | GTTTTTTTTATATATTGTACAAATAATATATTATAT [XGTACX_site29] | 10.9 ± 0.46
14 | AGGTTGAATATATATTTGTGATTATATTATTTTATT [CACACA_negctrl_site778] | 9.755 ± 0.092
15 | TATATATATATATAATGTACAAACTCCTTTATATAT [XGTACX_site4545] | 10.6 ± 0.4
16 | CCATGTCAAACATTTGCACACAAAAAAATAAAAATT [CACACA_site4546] | 10.2 ± 0.31
17 | TCATATATATTATACACACACATATATAAATATATA [CACACA_site967] | 10 ± 0.23
18 | AAAAAAAAAAAAAAAGCACACATATAAATATGAATA [CACACA_site8391] | 10.3 ± 0.23
19 | TTTTAAAAAAAAAAAATAAATAAATAAGATATTATC [CACACA_negctrl_site1791] | 9.45 ± 0.27
20 | TTTTAAAACTACATTGGTACACAATAAAAAAAAAAA [XGTACX_site2793] | 11.2 ± 0.73
21 | AATATAAACACAAACACACACATATATATATATATA [CACACA_site4307] | 10.2 ± 0.49
22 | AACACCAAACTAAATGTACACACATACATAAATATA [CACACA_site8298] | 11.3 ± 0.86

Row | Sequence | gcPBM binding intensity (ln)
23 | TTATTTAAACAAATCACACACAAATATAAATACATA [CACACA_site5158] | 10.1 ± 0.16
24 | GAAAATTCATAAAAATGTACTTATTATATTATTTAT [XGTACX_site2169] | 10.9 ± 0.57
25 | AAAGGTTTGCGTTGTGTGCACAAAATAAATATATAA | 10.6 ± 0.26
26 | GATATATAACTTTTAACACACAAAAAAAAAAAAAAT [CACACA_site7653] | 10 ± 0.26
27 | TAAAATTATGTAATAACACACATATACAATACATAT [CACACA_site1236] | 10.11 ± 0.042
28 | TTTATGAAACAGTGCACACATAAAAATAAATACATA [CACACA_site5631] | 10.6 ± 0.28
29 | TTATTTTAAATTAACACATGCATAATATATGTATAT [TGCATGCA_site597] | 9.75 ± 0.028
30 | TTTTTTATTTAAAGTAGTACTTTTTAGAAAACAAAA [XGTACX_site6759] | 11.3 ± 0.87
31 | ATTCTAAATATGTATATACACACTTTTAATATTCAT [CACACA_site4118] | 10.1 ± 0.035
32 | AAAAAAATTTTAAAATGTACAAATTTTAATATATAT [XGTACX_site7628] | 10.7 ± 0.33
33 | TTTTCAAAAATATACACACACATAAATATATGTATA [CACACA_site777] | 9.9 ± 0.099
34 | AAATATTTATATGTTACACACTGTTTATAATTTTCT [CACACA_site4868] | 9.83 ± 0.18
35 | AATTATGCACAAATCACACATATAAAATAAAAAGTG [CACACA_site4474] | 10.4 ± 0.29
36 | CAATGTATTTAGAATACATGCATATTTTCATAATGT [TGCATGCA_site221] | 9.89 ± 0.16
37 | AAAAAAAAAAAACACACACACACAAATACATACACA [CACACA_site706] | 10.2 ± 0.23
38 | AAATCCATATAGGATTGTACATATATTATATATATA [XGTACX_site8818] | 10.7 ± 0.52
39 | CAAAATGTTAAAGATACACACCTAACAAACACAAAA [CACACA_site4685] | 10.4 ± 0.28
40 | AATTCTTTACTATTCACACATATAAATATTCACTTT [CACACA_site4886] | 9.93 ± 0.18
41 | ACATATATATTTATATGTACATATATTTATATATAT [XGTACX_site7469] | 11.2 ± 0.83
42 | AAAAATATTTAAAATACACACATATCTATAATATAT [CACACA_site7032] | 9.835 ± 0.049
43 | GTGGTATAAATTTTATGTACTTAATAACTCATTAAT [XGTACX_site5555] | 11.3 ± 0.84
44 | ATATAGTTTCACATGTGTACATAAAAATACACTTGT [XGTACX_site3339] | 11.5 ± 1
